Laboratory results reported in patent publication US20250051434A1 (Merck Sharp & Dohme, published 2025).

Target: human IL-12 receptor (IL-12R) (human, UniProt P42701 24-662; Q99665 24-862)
Test: cell-based or functional assay

| Binder | Mean Fold Reduction (potency vs IL-12 WT by EC50; HEK-Blue IL-12 STAT4/SEAP reporter) [fold] |
| --- | --- |
| IL-12-Fc-8 (Fc fusion) chain 1: TPDPGMFPCLHHSQNLLRAVSNMLQKARQTLEFYPCTSEEIAHEDITKDKTSTVEACLPLELTKNESCLNSRETSFITNGSCLASRKTSFMMALCLSSIYEDLKMYQVEFKTMNAKLLMDPKRQIFLDQNMLAVIDELMQALNFNSETVPQKSSLEEPDFYKTKIKLCILLHAFRIRAVTIDRVMSYLNASGGGGSGGGGSGGGGS[skipping human IgG1 Fc with L234A L235A D265S S354C T366W (EU numbers)] chain 2: IWELKKDVYVVELDWYPDAPGEMVVLTCDTPEEDGITWTLDQSSEVLGSGKTLTIQVKEFGDAGQYTCHKGGEVLSHSLLLLHKKEDGIWSTDILKDQKEPKNKTFLRCEAKNYSGRFTCWWLTTISTDLTFSVKSSRGSSDPQGVTCGAATLSAERVRGDNKEYEYSVECQEDSACPAAEESLPIEVMVDAVHKLKYENYTSSFFIRDIIKPDPPKNLQLKPLKNSRQVEVSWEYPDTWSTPHSYFSLTFCVQVQGKSKREKKDRVFTDKTSATVICRKNASISVRAQDRYYSSSWSEWASVPCSGGGGDKTHTCPPCPAPEAAGGPSVFLFPPKPKDTLMISRTPEVTCVVVSVSHEDPEVKFNWYVDGVEVHNAKTKPREEQYNSTYRVVSVLTVLHQDWLNGKEYKCKVSNKALPAPIEKTISKAKGQPREPQVCTLPPSRDELTKNQVSLSCAVKGFYPSDIAVEWESNGQPENNYKTTPPVLDSDGSFFLVSKLTVDKSRWQQGNVFSCSVMHEALHNHYTQKSLSLSPGK | 1 |
| IL-12-Fc-9 (Fc fusion) chain 1: TPDPGMFPCLHHSQNLLRAVSNMLQKARQTLEFYPCTSEEILHEDITKDKTSTVEACLPLELTKNESCLNSRETSFITNGSCLASRKTSFMMALCLSSIYEDLKMYQVEFKTMNAKLLMDPKRQIFLDQNMLAVIDELMQALNFNSETVPQKSSLEEPDFYKTKIKLCILLHAFRIRAVTIDRVMSYLNASGGGGSGGGGSGGGGS[skipping human IgG1 Fc with L234A L235A D265S S354C T366W (EU numbers)] chain 2: IWELKKDVYVVELDWYPDAPGEMVVLTCDTPEEDGITWTLDQSSEVLGSGKTLTIQVKEFGDAGQYTCHKGGEVLSHSLLLLHKKEDGIWSTDILKDQKEPKNKTFLRCEAKNYSGRFTCWWLTTISTDLTFSVKSSRGSSDPQGVTCGAATLSAERVRGDNKEYEYSVECQEDSACPAAEESLPIEVMVDAVHKLKYENYTSSFFIRDIIKPDPPKNLQLKPLKNSRQVEVSWEYPDTWSTPHSYFSLTFCVQVQGKSKREKKDRVFTDKTSATVICRKNASISVRAQDRYYSSSWSEWASVPCSGGGGDKTHTCPPCPAPEAAGGPSVFLFPPKPKDTLMISRTPEVTCVVVSVSHEDPEVKFNWYVDGVEVHNAKTKPREEQYNSTYRVVSVLTVLHQDWLNGKEYKCKVSNKALPAPIEKTISKAKGQPREPQVCTLPPSRDELTKNQVSLSCAVKGFYPSDIAVEWESNGQPENNYKTTPPVLDSDGSFFLVSKLTVDKSRWQQGNVFSCSVMHEALHNHYTQKSLSLSPGK | 2 |
| IL-12-Fc-10 (Fc fusion) chain 1: TPDPGMFPCLHHSQNLLRAVSNMLQKARQTLEFYPCTSEEIWHEDITKDKTSTVEACLPLELTKNESCLNSRETSFITNGSCLASRKTSFMMALCLSSIYEDLKMYQVEFKTMNAKLLMDPKRQIFLDQNMLAVIDELMQALNFNSETVPQKSSLEEPDFYKTKIKLCILLHAFRIRAVTIDRVMSYLNASGGGGSGGGGSGGGGS[skipping human IgG1 Fc with L234A L235A D265S S354C T366W (EU numbers)] chain 2: IWELKKDVYVVELDWYPDAPGEMVVLTCDTPEEDGITWTLDQSSEVLGSGKTLTIQVKEFGDAGQYTCHKGGEVLSHSLLLLHKKEDGIWSTDILKDQKEPKNKTFLRCEAKNYSGRFTCWWLTTISTDLTFSVKSSRGSSDPQGVTCGAATLSAERVRGDNKEYEYSVECQEDSACPAAEESLPIEVMVDAVHKLKYENYTSSFFIRDIIKPDPPKNLQLKPLKNSRQVEVSWEYPDTWSTPHSYFSLTFCVQVQGKSKREKKDRVFTDKTSATVICRKNASISVRAQDRYYSSSWSEWASVPCSGGGGDKTHTCPPCPAPEAAGGPSVFLFPPKPKDTLMISRTPEVTCVVVSVSHEDPEVKFNWYVDGVEVHNAKTKPREEQYNSTYRVVSVLTVLHQDWLNGKEYKCKVSNKALPAPIEKTISKAKGQPREPQVCTLPPSRDELTKNQVSLSCAVKGFYPSDIAVEWESNGQPENNYKTTPPVLDSDGSFFLVSKLTVDKSRWQQGNVFSCSVMHEALHNHYTQKSLSLSPGK | 1 |
| IL-12-Fc-11 (Fc fusion) chain 1: TPDPGMFPCLHHSQNLLRAVSNMLQKARQTLEFYPCTSEEIDHADITKDKTSTVEACLPLELTKNESCLNSRETSFITNGSCLASRKTSFMMALCLSSIYEDLKMYQVEFKTMNAKLLMDPKRQIFLDQNMLAVIDELMQALNFNSETVPQKSSLEEPDFYKTKIKLCILLHAFRIRAVTIDRVMSYLNASGGGGSGGGGSGGGGS[skipping human IgG1 Fc with L234A L235A D265S S354C T366W (EU numbers)] chain 2: IWELKKDVYVVELDWYPDAPGEMVVLTCDTPEEDGITWTLDQSSEVLGSGKTLTIQVKEFGDAGQYTCHKGGEVLSHSLLLLHKKEDGIWSTDILKDQKEPKNKTFLRCEAKNYSGRFTCWWLTTISTDLTFSVKSSRGSSDPQGVTCGAATLSAERVRGDNKEYEYSVECQEDSACPAAEESLPIEVMVDAVHKLKYENYTSSFFIRDIIKPDPPKNLQLKPLKNSRQVEVSWEYPDTWSTPHSYFSLTFCVQVQGKSKREKKDRVFTDKTSATVICRKNASISVRAQDRYYSSSWSEWASVPCSGGGGDKTHTCPPCPAPEAAGGPSVFLFPPKPKDTLMISRTPEVTCVVVSVSHEDPEVKFNWYVDGVEVHNAKTKPREEQYNSTYRVVSVLTVLHQDWLNGKEYKCKVSNKALPAPIEKTISKAKGQPREPQVCTLPPSRDELTKNQVSLSCAVKGFYPSDIAVEWESNGQPENNYKTTPPVLDSDGSFFLVSKLTVDKSRWQQGNVFSCSVMHEALHNHYTQKSLSLSPGK | 4 |
| IL-12-Fc-12 (Fc fusion) chain 1: TPDPGMFPCLHHSQNLLRAVSNMLQKARQTLEFYPCTSEEIDHKDITKDKTSTVEACLPLELTKNESCLNSRETSFITNGSCLASRKTSFMMALCLSSIYEDLKMYQVEFKTMNAKLLMDPKRQIFLDQNMLAVIDELMQALNFNSETVPQKSSLEEPDFYKTKIKLCILLHAFRIRAVTIDRVMSYLNASGGGGSGGGGSGGGGS[skipping human IgG1 Fc with L234A L235A D265S S354C T366W (EU numbers)] chain 2: IWELKKDVYVVELDWYPDAPGEMVVLTCDTPEEDGITWTLDQSSEVLGSGKTLTIQVKEFGDAGQYTCHKGGEVLSHSLLLLHKKEDGIWSTDILKDQKEPKNKTFLRCEAKNYSGRFTCWWLTTISTDLTFSVKSSRGSSDPQGVTCGAATLSAERVRGDNKEYEYSVECQEDSACPAAEESLPIEVMVDAVHKLKYENYTSSFFIRDIIKPDPPKNLQLKPLKNSRQVEVSWEYPDTWSTPHSYFSLTFCVQVQGKSKREKKDRVFTDKTSATVICRKNASISVRAQDRYYSSSWSEWASVPCSGGGGDKTHTCPPCPAPEAAGGPSVFLFPPKPKDTLMISRTPEVTCVVVSVSHEDPEVKFNWYVDGVEVHNAKTKPREEQYNSTYRVVSVLTVLHQDWLNGKEYKCKVSNKALPAPIEKTISKAKGQPREPQVCTLPPSRDELTKNQVSLSCAVKGFYPSDIAVEWESNGQPENNYKTTPPVLDSDGSFFLVSKLTVDKSRWQQGNVFSCSVMHEALHNHYTQKSLSLSPGK | 6 |
| IL-12-Fc-13 (Fc fusion) chain 1: TPDPGMFPCLHHSQNLLRAVSNMLQKARQTLEFYPCTSEEIDHRDITKDKTSTVEACLPLELTKNESCLNSRETSFITNGSCLASRKTSFMMALCLSSIYEDLKMYQVEFKTMNAKLLMDPKRQIFLDQNMLAVIDELMQALNFNSETVPQKSSLEEPDFYKTKIKLCILLHAFRIRAVTIDRVMSYLNASGGGGSGGGGSGGGGS[skipping human IgG1 Fc with L234A L235A D265S S354C T366W (EU numbers)] chain 2: IWELKKDVYVVELDWYPDAPGEMVVLTCDTPEEDGITWTLDQSSEVLGSGKTLTIQVKEFGDAGQYTCHKGGEVLSHSLLLLHKKEDGIWSTDILKDQKEPKNKTFLRCEAKNYSGRFTCWWLTTISTDLTFSVKSSRGSSDPQGVTCGAATLSAERVRGDNKEYEYSVECQEDSACPAAEESLPIEVMVDAVHKLKYENYTSSFFIRDIIKPDPPKNLQLKPLKNSRQVEVSWEYPDTWSTPHSYFSLTFCVQVQGKSKREKKDRVFTDKTSATVICRKNASISVRAQDRYYSSSWSEWASVPCSGGGGDKTHTCPPCPAPEAAGGPSVFLFPPKPKDTLMISRTPEVTCVVVSVSHEDPEVKFNWYVDGVEVHNAKTKPREEQYNSTYRVVSVLTVLHQDWLNGKEYKCKVSNKALPAPIEKTISKAKGQPREPQVCTLPPSRDELTKNQVSLSCAVKGFYPSDIAVEWESNGQPENNYKTTPPVLDSDGSFFLVSKLTVDKSRWQQGNVFSCSVMHEALHNHYTQKSLSLSPGK | 2 |
| IL-12-Fc-14 (Fc fusion) chain 1: TPDPGMFPCLHHSQNLLRAVSNMLQKARQTLEFYPCTSEEIDHEDITKDKTSTVEACLPLELTKNESCLNSRETSFITNGSCLASRKTSFMMALCLSSIYEDLKMYQVEFKTMNAKLLMDPKRQIFLDQNMLAVIDELMQALNFNSETVPQKSSLEEPKFYKTKIKLCILLHAFRIRAVTIDRVMSYLNASGGGGSGGGGSGGGGS[skipping human IgG1 Fc with L234A L235A D265S S354C T366W (EU numbers)] chain 2: IWELKKDVYVVELDWYPDAPGEMVVLTCDTPEEDGITWTLDQSSEVLGSGKTLTIQVKEFGDAGQYTCHKGGEVLSHSLLLLHKKEDGIWSTDILKDQKEPKNKTFLRCEAKNYSGRFTCWWLTTISTDLTFSVKSSRGSSDPQGVTCGAATLSAERVRGDNKEYEYSVECQEDSACPAAEESLPIEVMVDAVHKLKYENYTSSFFIRDIIKPDPPKNLQLKPLKNSRQVEVSWEYPDTWSTPHSYFSLTFCVQVQGKSKREKKDRVFTDKTSATVICRKNASISVRAQDRYYSSSWSEWASVPCSGGGGDKTHTCPPCPAPEAAGGPSVFLFPPKPKDTLMISRTPEVTCVVVSVSHEDPEVKFNWYVDGVEVHNAKTKPREEQYNSTYRVVSVLTVLHQDWLNGKEYKCKVSNKALPAPIEKTISKAKGQPREPQVCTLPPSRDELTKNQVSLSCAVKGFYPSDIAVEWESNGQPENNYKTTPPVLDSDGSFFLVSKLTVDKSRWQQGNVFSCSVMHEALHNHYTQKSLSLSPGK | 4 |
